Experimental data reported in the RNAGym collection of RNA variant scans (doi:10.7554/elife.90254).
The source gives no read counts; variants with many changes may rest on few reads.

B1: LINE1-mini (parent)
chain: GGCAGAGCUCAACACAGCGUGGCAAAGUGGCUGUGGCUAGACUGCC

Variants of: B1
Experiment: self-cleavage, relative activity (ratio to wild type); higher = more cleavage; in vitro, sequencing; the parent is a self-cleaving ribozyme

Variant	self-cleavage
G2C C3G G21U G40A	0.07
G2C A12C G35U	0.04
G2C C3U C10A C15G G36C	0.07
G2C A12U A26G	0.03
G2C A12U A26U	0.04
G2C C10A A11U G21A	0.01
G2C A16C C18A G29U C31A C37G C42U	0.02
G2C C3U G7A G19U G30A U32G A39U	0.15
G2C C3A C10A U28G	0.04
G2C C3A G7C	0.1
G2C C10A G21C A25U A26G C37G	0.01
G2C C8U A14C C18U	0.05
G2C C8U C15G	0.13
G2C C10A G30C	0.03
G2C A25G U34A	0.11
G2C C8U U28C C45G	0.07
G2C A12G G19U A24C	0.01
G2C C8A G27U	0.05
G2C C8U G17A	0.11
G2C A24C G36C U43C	0.01
G2C A14C U43G	0.01
G2C A25U A26G U28G	0.03
G2C A12U G17C C31G C37G	0.01
G2C A14G C46U	0.02

Variant	self-cleavage
G2C A26G G33C G36U C46A	0.04
G2C A39G A41U	0.01
G2C C3A A24C U34C C37A U43C	0.01
G2C A26C A41U U43C	0.05
G2C C8G C45G	0.25
G2C C8A C31A C42U	0.09
G2C C8A G35C	0.12
G2C C3A C8G G21C U38A	0.06
G2C A24U A26C	0.12
G2C C8A C18U	0.16
G2C A14C U20C	0.01
G2C C8A C15U U38G	1.05
G2C A16G G27A	0.04
G2C C3A G5U C10A A16C C18G	0.02
G2C C10G A24C G27C A39U	0
G2C C3G G5U	0.13
G2C C8U C18G G40U	0.04
G2C A12G A25G	0.02
G2C A25G G29A U38A G40A	0.03
G2C A25G U34A G40A	0.08
G2C C10A A11G	0.01
G2C C3G G7C G30U G36C	0.12
G2C C10A U20A A39G C46A	0
G2C A16G G36A G40C	0

Variant	self-cleavage
G2C A14U G21A	0.04
G2C C8A G21U	0.03
G2C C8A A39G C42U	1.83
G2C A26C U34G	0.01
G2C A26U G44A	0.15
G2C C8A C31G U32C	0.05
G2C C10A U32C	0
G2C A16G U34A U43A	0.01
G2C A26G G27C	0.33
G2C A26G G27A	0.17
G2C A12U G19C G21U G36U C37A G40A	0.02
G2C A12U A25U G27U U34C	0.03
G2C C8U A12G	0.19
G2C A12G A26C U32C G44A	0.1
G2C A25G G30C C42A	0.01
G2C C3U A12C G30U	0.03
G2C C3U C37G	0.25
G2C A16U G19A G29C	0.04
G2C C3U G7C C10A C31U C45U	0.05
G2C A12C C23A G44C	0.01
G2C A16C C31U U34G C46U	0.07
G2C C8G G22A U43A	0.01
G2C A26C G33A A39C	0.02
G2C A16G G35U	0.01

Variant	self-cleavage
G2C C3U A4U C45G	0.16
G2C C10G G17A U20C U32C A39G	0
G2C C10A G21U A26G	0.02
G2C C10A C23U G29U C45U	0.01
G2C C3U G33A	0.05
G2C C10A G21U G30U G40A	0
G2C C8A C23G A39C	0.08
G2C A16U G21A	0.07
G2C A14G G19C A26U	0.03
G2C C3A U43A	0.12
G2C A16U G22C	0.02
G2C C3A A11G A16U G22A	0.02
G2C C3U A26U U32C G44A C46A	0.1
G2C C10A A12C C18A G44A	0.02
G2C C8U U9A A16C	0.06
G2C C3G C8U A26G C31G	0.11
G2C A16C C23U	0.01
G2C A12G C37G	0.04
G2C C10G C13A G22A	0.04
G2C A16U C46A	0.11
G2C C3G C10U A14G G30A	0.1
G2C A26G G29A G40C	0.08
G2C C8G G17A	0.47
G2C A14G A16U U20G G27C	0.01

Variant	self-cleavage
G2C A26U C42A	0.44
G2C A14G G17U	0.04
G2C C3A A16C G21U G27A C37U U38A	0.02
G2C C10A C23G C37A	0.01
G2C A26C G29A G44U	0.01
G2C A12G C15A G19A C45A	0.01
G2C C8A G19A G29U G33U C46A	0.04
G2C A12G C42A	0.2
G2C A26U C31A C42G C45U	0.02
G2C C3A C8U C10G G19U U38C	0.01
G2C C10A A16C C18A G22U C23G A39G G40A	0
G2C C3U G33C G35C C37G	0.06
G2C A12C A39U	0.01
G2C C8U G21A G40A	0.2
G2C A14U G21A C31U A41C	0.12
G2C C10G A25C C42A C46U	0.02
G2C C3U G5A	0.07
G2C C10A U34C	0.01
G2C C10A A24C U34A C42G G44U	0.01
G2C A12U G17C	0.03
G2C A12G C13U G30A C31A	0.11
G2C C3U C31A U34G C37A	0.02
G2C A24C C31G U32C	0.01
G2C C10A A14C G33A	0

Variant	self-cleavage
G2C C3U C15G C31A	0.01
G2C C3G A25U C46A	0.07
G2C A25C U34G C46U	0.03
G2C A16C G17A	0.03
G2C A24U G33C	0.08
G2C C3A G5A C46G	0.08
G2C C8U C13G G27A	0.25
G2C A14U G27C C42U	0.01
G2C A39G G44U	0.33
G2C C3G G21U G44U	0.08
G2C C3A G22U A24U	0.96
G2C C10A C13G C18A G27A G29C	0.02
G2C C8A C45A	0.14
G2C A16G G21C G22U	0.03
G2C A12G C15U G19U U43C G44A C45G	0.04
G2C A16C G30C G44U	0.11
G2C C3U C18U	0.45
G2C C3A U32C C46U	0.04
G2C A16U C23A U28A C46U	0.01
G2C C8G G19U C23U G29U U32A U34A	0.1
G2C A14C U28A	0.12
G2C A12C C15U C23A A24G A25C	0.02
G2C C3U G40U	0.24
G2C A14U G33C G40A C45A	0

Variant	self-cleavage
G2C C10A A24C G30C A41U C45U	0.01
G2C A12U A14G A16G C23A	0.02
G2C C3G G7U G17C A25C G35C C37U G40C	0.02
G2C A14G U20C C45U	0.03
G2C C3U C15U C37U	0.41
G2C C8U C10U C13A U28C G35U	0.01
G2C C8G G44C	0.04
G2C C10A U20A A26G	0.01
G2C A14U G21U C46A	0.09
G2C A16G C23A	0.1
G2C C8U A24U U32C G35A	0.22
G2C C3A G27U G30U	0.43
G2C C8U C13U G30C	0.01
G2C C10A C18A	0.01
G2C A41C C46U	0.02
G2C C8U A14G C18A	0.01
G2C C3U G19U G40U G44C	0.09
G2C A14U U34G G40U C42U	0
G2C C3G C10U G19A G27A	0.47
G2C C10G A26C	0.01
G2C A16U A26G G30U U38C	0.1
G2C C10A A26C G36A	0.03
G2C A24C C31G	0.02
